Test results as given in the supplement of paper PMC8728848.
The other results are listed elsewhere or left out.

Assays:
Assay in all cases: glycan array binding signal (z-score within array); higher = stronger binding
Details in all cases: glycan notation: IUPAC condensed, linker removed
[1] = biological target: Neu5Ac(a2-3)[GalNAc(b1-4)]Gal(b1-3)GalNAc(b1-4)[Neu5Ac(a2-3)]Gal(b1-4)Glc
Method in brief: (§1)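 Arrays were curated from the Consortium for Functional Glycomics database, 3228 in total, and kept only where the protein sequence was available. Binding is expressed as a within-array Z-score. This score was averaged across arrays of the same protein sequence at different concentrations or buffers and across linkers, and negative values can be read as non-binding.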

[2] = biological target: Neu5Ac(a2-3)[GalNAc(b1-4)]Gal(b1-4)Glc
Method in brief: as §1

[3] = biological target: Neu5Ac(a2-6)Gal(b1-3)GlcNAc(b1-3)[Fuc(a1-3)[Gal(b1-4)]GlcNAc(b1-6)]Gal(b1-4)Glc
Method in brief: as §1

[4] = biological target: Neu5Ac(a2-6)Gal(b1-3)GlcNAc(b1-3)[Gal(b1-4)GlcNAc(b1-6)]Gal(b1-4)Glc
Method in brief: as §1

Neu5Ac(a2-6)Gal(b1-4)Glc = biological target: Neu5Ac(a2-6)Gal(b1-4)Glc
Method in brief: as §1

[5] = biological target: Neu5Ac(a2-6)Gal(b1-4)GlcNAc
Method in brief: as §1

[6] = biological target: Neu5Ac(a2-6)Gal(b1-4)GlcNAc(b1-2)Man(a1-3)[Neu5Ac(a2-6)Gal(b1-4)GlcNAc(b1-2)Man(a1-6)]Man(b1-4)GlcNAc(b1-4)GlcNAc
Method in brief: as §1

[7] = biological target: Neu5Ac(a2-6)Gal(b1-4)GlcNAc(b1-2)Man(a1-3)[Neu5Gc(a2-6)Gal(b1-4)GlcNAc(b1-2)Man(a1-6)]Man(b1-4)GlcNAc(b1-4)GlcNAc
Method in brief: as §1

[8] = biological target: Neu5Ac(a2-6)Gal(b1-4)GlcNAc(b1-2)[Neu5Ac(a2-3)Gal(b1-4)GlcNAc(b1-4)]Man(a1-3)[Neu5Ac(a2-3)Gal(b1-4)GlcNAc(b1-2)Man(a1-6)]Man(b1-4)GlcNAc(b1-4)GlcNAc
Method in brief: as §1

[9] = biological target: Neu5Ac(a2-6)Gal(b1-4)GlcNAc(b1-3)Gal(b1-4)Glc
Method in brief: as §1

[10] = biological target: Neu5Ac(a2-6)Gal(b1-4)GlcNAc(b1-3)Gal(b1-4)[Fuc(a1-3)]Glc
Method in brief: as §1

[11] = biological target: Neu5Ac(a2-6)Gal(b1-4)GlcNAc(b1-3)[Neu5Ac(a2-6)Gal(b1-4)GlcNAc(b1-6)]Gal(b1-4)Glc
Method in brief: as §1

[12] = biological target: Neu5Ac(a2-6)Gal(b1-4)GlcNAc(b1-6)[Gal(b1-3)GlcNAc(b1-3)]Gal(b1-4)Glc
Method in brief: as §1

[13] = biological target: Neu5Ac(a2-6)Gal(b1-4)[Fuc(a1-3)]GlcNAc(b1-3)Gal(b1-4)Glc
Method in brief: as §1

Neu5Ac(a2-8)Neu5Ac = biological target: Neu5Ac(a2-8)Neu5Ac
Method in brief: as §1

[14] = biological target: Neu5Ac(a2-8)Neu5Ac(a2-3)Gal(b1-3)GalNAc(b1-4)[Neu5Ac(a2-3)]Gal(b1-4)Glc
Method in brief: as §1

[15] = biological target: Neu5Ac(a2-8)Neu5Ac(a2-3)Gal(b1-3)GalNAc(b1-4)[Neu5Ac(a2-8)Neu5Ac(a2-3)]Gal(b1-4)Glc
Method in brief: as §1

[16] = biological target: Neu5Ac(a2-8)Neu5Ac(a2-3)Gal(b1-4)Glc
Method in brief: as §1

[17] = biological target: Neu5Ac(a2-8)Neu5Ac(a2-3)[Gal(b1-3)GalNAc(b1-4)]Gal(b1-4)Glc
Method in brief: as §1

[18] = biological target: Neu5Ac(a2-8)Neu5Ac(a2-3)[GalNAc(b1-4)]Gal(b1-4)Glc
Method in brief: as §1

[19] = biological target: Neu5Ac(a2-8)Neu5Ac(a2-8)Neu5Ac
Method in brief: as §1

[20] = biological target: Neu5Ac(a2-8)Neu5Ac(a2-8)Neu5Ac(a2-8)Neu5Ac
Method in brief: as §1

[21] = biological target: Neu5Ac(a2-8)Neu5Ac(a2-8)Neu5Ac(a2-8)Neu5Ac(a2-8)Neu5Ac
Method in brief: as §1

[22] = biological target: Neu5Ac(a2-8)Neu5Ac(a2-8)Neu5Ac(a2-8)Neu5Ac(a2-8)Neu5Ac(a2-8)Neu5Ac
Method in brief: as §1

[23] = biological target: Neu5Ac(a2-8)Neu5Ac(a2-8)Neu5Ac(a2-8)Neu5Ac(a2-8)Neu5Ac(a2-8)Neu5Ac(a2-8)Neu5Ac
Method in brief: as §1

[24] = biological target: Neu5Ac(a2-8)Neu5Ac(a2-8)Neu5Ac(a2-8)Neu5Ac(a2-8)Neu5Ac(a2-8)Neu5Ac(a2-8)Neu5Ac(a2-8)Neu5Ac
Method in brief: as §1

[25] = biological target: Neu5Ac(a2-8)Neu5Ac(a2-8)Neu5Ac(a2-8)Neu5Ac(a2-8)Neu5Ac(a2-8)Neu5Ac(a2-8)Neu5Ac(a2-8)Neu5Ac(a2-8)Neu5Ac
Method in brief: as §1

[26] = biological target: Neu5Ac(a2-8)Neu5Ac(a2-8)Neu5Ac(a2-8)Neu5Ac(a2-8)Neu5Ac(a2-8)Neu5Ac(a2-8)Neu5Ac(a2-8)Neu5Ac(a2-8)Neu5Ac(a2-8)Neu5Ac
Method in brief: as §1

[27] = biological target: Neu5Ac(a2-8)Neu5Ac(a2-8)Neu5Ac(a2-8)Neu5Ac(a2-8)Neu5Ac(a2-8)Neu5Ac(a2-8)Neu5Ac(a2-8)Neu5Ac(a2-8)Neu5Ac(a2-8)Neu5Ac(a2-8)Neu5Ac
Method in brief: as §1

Neu5Ac(b2-3)Gal(b1-4)Glc = biological target: Neu5Ac(b2-3)Gal(b1-4)Glc
Method in brief: as §1

Neu5Ac(b2-6)Gal(b1-4)Glc = biological target: Neu5Ac(b2-6)Gal(b1-4)Glc
Method in brief: as §1

[28] = biological target: Neu5Ac9Ac(a2-6)Gal(b1-4)GlcNAc
Method in brief: as §1

Neu5Gc(a2-3)Gal(b1-4)Glc = biological target: Neu5Gc(a2-3)Gal(b1-4)Glc
Method in brief: as §1

[29] = biological target: Neu5Gc(a2-3)[GalNAc(b1-4)]Gal
Method in brief: as §1

[30] = biological target: Neu5Gc(a2-6)Gal(b1-4)GlcNAc(b1-2)Man(a1-3)[Neu5Gc(a2-6)Gal(b1-4)GlcNAc(b1-2)Man(a1-6)]Man(b1-4)GlcNAc(b1-4)GlcNAc
Method in brief: as §1

[31] = biological target: Xyl(a1-6)Glc(b1-4)[Xyl(a1-6)]Glc(b1-4)[Xyl(a1-6)]Glc(b1-4)Glc
Method in brief: as §1

[32] = biological target: Xyl(b1-2)[Man(a1-3)][Man(a1-6)]Man(b1-4)GlcNAc(b1-4)GlcNAc
Method in brief: as §1

[33] = biological target: Xyl(b1-2)[Man(a1-3)][Man(a1-6)]Man(b1-4)GlcNAc(b1-4)[Fuc(a1-3)]GlcNAc
Method in brief: as §1

[34] = biological target: Xyl(b1-4)Xyl(b1-4)Xyl(b1-4)Xyl(b1-4)Xyl
Method in brief: as §1

B1: CLECSF8 (Mus musculus), Q9Z2H6 (protein)
chain: HYFLRWTRGSVVKLSDYHTRVTCIREEPQPGATGGTWTCCPVSWRAFQSNCYFPLNDNQTWHESERNCSGMSSHLVTINTEAEQNFVTQLLDKRFSYFLGLADENVEGQWQWVDKTPFNPHTVFWEKGESNDFMEEDCVVLVHVHEKWVWNDFPCHFEVRRICKLPGITFNWKPSK
For B1, the “glycan array binding signal (z-score)” value [1] was -0.424, the “glycan array binding signal (z-score)” value [2] was -0.424 and the “glycan array binding signal (z-score)” value [3] was -0.424. The “glycan array binding signal (z-score)” value [4] was -0.424, the “glycan array binding signal (z-score)” value (Neu5Ac(a2-6)Gal(b1-4)Glc) was -0.424 and the “glycan array binding signal (z-score)” value [5] was -0.424. The “glycan array binding signal (z-score)” value [6] was -0.424, the “glycan array binding signal (z-score)” value [7] was -0.424 and the “glycan array binding signal (z-score)” value [8] was -0.424. For the same binder, the “glycan array binding signal (z-score)” value [9] was -0.424, the “glycan array binding signal (z-score)” value [10] was -0.424 and the “glycan array binding signal (z-score)” value [11] was -0.424. The “glycan array binding signal (z-score)” value [12] was -0.424, the “glycan array binding signal (z-score)” value [13] was -0.424 and the “glycan array binding signal (z-score)” value (Neu5Ac(a2-8)Neu5Ac) was 1.43. For the same binder, the “glycan array binding signal (z-score)” value [14] was 9.51, the “glycan array binding signal (z-score)” value [15] was -0.424 and the “glycan array binding signal (z-score)” value [16] was -0.424. For the same binder, the “glycan array binding signal (z-score)” value [17] was -0.424, the “glycan array binding signal (z-score)” value [18] was -0.424 and the “glycan array binding signal (z-score)” value [19] was 2.57. For the same binder, the “glycan array binding signal (z-score)” value [20] was 2.57, the “glycan array binding signal (z-score)” value [21] was 1.77 and the “glycan array binding signal (z-score)” value [22] was 0.688. For the same binder, the “glycan array binding signal (z-score)” value [23] was 2.38, the “glycan array binding signal (z-score)” value [24] was 2.26 and the “glycan array binding signal (z-score)” value [25] was 2.35. The “glycan array binding signal (z-score)” value [26] was 0.778, the “glycan array binding signal (z-score)” value [27] was 2.73 and the “glycan array binding signal (z-score)” value (Neu5Ac(b2-3)Gal(b1-4)Glc) was -0.424. For the same binder, the “glycan array binding signal (z-score)” value (Neu5Ac(b2-6)Gal(b1-4)Glc) was -0.424, the “glycan array binding signal (z-score)” value [28] was -0.424 and the “glycan array binding signal (z-score)” value (Neu5Gc(a2-3)Gal(b1-4)Glc) was -0.424. The “glycan array binding signal (z-score)” value [29] was -0.424, the “glycan array binding signal (z-score)” value [30] was -0.424 and the “glycan array binding signal (z-score)” value [31] was 3.32. For the same binder, the “glycan array binding signal (z-score)” value [32] was -0.424, the “glycan array binding signal (z-score)” value [33] was -0.424 and the “glycan array binding signal (z-score)” value [34] was 1.27.
